The text below walks through data of publication PMC12136788.

The list shows a part of the results.

T1: UNK ZnF1-3 (human, UniProt Q9C0B0 31-174)
T1 sequence: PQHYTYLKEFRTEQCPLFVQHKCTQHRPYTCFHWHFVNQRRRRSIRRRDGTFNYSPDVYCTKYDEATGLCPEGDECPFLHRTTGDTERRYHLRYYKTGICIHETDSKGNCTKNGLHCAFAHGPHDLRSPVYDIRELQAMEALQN

B1: chr4:86222399:86222400:+_ENSMUSG00000070934_ENSMUST00000091064|mus_hu|FALSE|FALSE (ssRNA)
RNA: GGGAGUUCUACAGUCCGACGAUCGAAUGUAGCUCUUUCGAACAGCAGAACUUCAUCGGCCUCAAUGAUUUGGGCAAAAUUCCUGAGGUUCAUCUCCAGCUGCUGAACGUUGGGAAUCAGCUGGUAGACGAUGCUGGACCAGGCCAACAGAGGAUUGAGCAUCA
B2: 165202529_165202649_5379_3pUTR_ENSMUSG00000017667_ENSMUST00000103084|mouse|control|control (ssRNA)
RNA: GGGAGUUCUACAGUCCGACGAUCGUUCUCUUCCUGUACCAUGUGGGUCCCGGGACCAAACACAGGUUGUCUGGCUUGGUGGCAGGUGAUGUUACCCCACACCAUCUGGAAGCCCCUCAGAGUCUUUAUAGAUGCAGUAAUAAUCAACAGAGGAUUGAGCAUCA
B3: chr19:47150976:47150977:-_ENSG00000197380_ENST00000391916|hu_mus|FALSE|FALSE (ssRNA)
RNA: GGGAGUUCUACAGUCCGACGAUCACAGUAAUUUCUUUAAUAAAAAAAAAAAAACAAAAACAAACAAAUCAAAAAAACCCACUGGAUUGGAACAGCUGAGGGUCAUUCAGCGUCCCCCACCCCCCGUGGGGAGAGGCACGAGAUCAACAGAGGAUUGAGCAUCA
B4: chr18:56819859:56819860:+_ENSG00000166562_ENST00000588875|hu_mus|hu_hu_hu_mus_True|68_88 (ssRNA)
RNA: GGGAGUUCUACAGUCCGACGAUCAACCUUGAUUACUCUGUGAACUAUUGGAAUGUCUCUUCCUUCAACUUUAAAAACAACUAUUUCACCAGCUCUGAUGGGGUCCUCCCGGAAAUUCGUGAGGAACAGCAGAUCUCCUCUGUGCAACAGAGGAUUGAGCAUCA
B5: chr2:183789671:183789672:-_ENSG00000061676_ENST00000360982|hu_mus|FALSE|FALSE (ssRNA)
RNA: GGGAGUUCUACAGUCCGACGAUCUUAUGGCAGGUACACUUGAAUUUCAAAUGUUAAAACAUAUAAAAAGUGAUUCGGGACUACCAUCUGUAUCAACAGUUGCCAAGUGUCUGGUUGUUUAUUAUACAGCAGGGUAAAGGCAGUCAACAGAGGAUUGAGCAUCA
B6: chr14:63848828:63848829:-_ENSG00000154001_ENST00000337537|hu_hu|FALSE|FALSE (ssRNA)
RNA: GGGAGUUCUACAGUCCGACGAUCACGCUGACGAUCUGACUUGUAUGUGGCUGUCAGCUCGUCAAACAUGGUGCUGUUCAUUUCCAUAAAUGCCUUCAACACAUUGUACACCAACGCCACAAUAGCCGGAUUCCAAUGUUCUUUCAACAGAGGAUUGAGCAUCA
B7: chr2:160604994:160604995:+_ENSG00000136536_ENST00000409591|hu_mus|motif|central (ssRNA)
RNA: GGGAGUUCUACAGUCCGACGAUCUCUUGAAGACUCAUCCCUUCCCUCUCGCCUCCUUCUCGAGAACAAAGGUGUGCAUCGGUUUCGGAGUGAAGAAGACAACCAUGGUCCUGAAUUUCUACCUUCUGAUUCUUGGUUAAAAUUCAACAGAGGAUUGAGCAUCA
B8: 96340820_96341848_1134_3pUTR_ENSMUSG00000031217_ENSMUST00000052839|mouse|control|control (ssRNA)
RNA: GGGAGUUCUACAGUCCGACGAUCCUCCAGUCCCUCCAAGCUCCCAUUGGACGUUGAUGUAAUGUAGUAAUCGUGGUACUUUUUGAAUUCCAGGCCCAUGUAGUUGGGGCUGAACUCUUGGAACUUGAUGGUGAAGCGGAUUUCCAACAGAGGAUUGAGCAUCA
B9: chr1:66480114:66480115:+_ENSMUSG00000015222_ENSMUST00000024639|mus_hu|mus_mus_mus_hu_True|48_98 (ssRNA)
RNA: GGGAGUUCUACAGUCCGACGAUCUGGCCUGUGGCGGAUGUUCUUUAGAGAGCCACAUUUGGAUGUCACAUGGCUUAGGUCUAUUUUCUUAGUAACAAUUUGUACCUGCCCCCCUUUAGGCUGGUAUUUGAUGUUGUCUGUUGACAACAGAGGAUUGAGCAUCA
B10: chrX:119680447:119680448:-_ENSG00000158290_ENST00000371322|hu_hu|motif|central (ssRNA)
RNA: GGGAGUUCUACAGUCCGACGAUCAAACAAAAAAAUGCUCCUGAUCAUGAUCAUUUGUCUGCAAUGGUUUUGCCAGCAUCGGUCAAUCUUCUUUAAAAAAAGAACGCUAUCCAAUGAAUCCUCUCUGAAUUGAUGAAUCUGUGCCAACAGAGGAUUGAGCAUCA
B11: chr16:49915050:49915051:+_ENSMUSG00000055447_ENSMUST00000084838|mus_mus|FALSE|FALSE (ssRNA)
RNA: GGGAGUUCUACAGUCCGACGAUCAUUAAGUAUAUAUAAUAUUACAGGGUAAUAUUUACACAGUUAUUUUUUUAAAUAAAAAAGUAUCUUGGCAAAGAUUGCAGGUAUUCAAAGCUUCAAACAGUGAUAAAUUGAUUUAAUACACAACAGAGGAUUGAGCAUCA
B12: chr17:13109412:13109413:+_ENSMUSG00000068039_ENSMUST00000151287|mus_mus|FALSE|FALSE (ssRNA)
RNA: GGGAGUUCUACAGUCCGACGAUCGUGCUGCGGUCCCCGAACACGGACAAAGGACCCUCCAUCUUCAGGAAACGAAGCAAAGCUCACUACGGCCGCAGACAACCGAUAGCUCCGCUCUGAGACCGUUUAACGGCCACCACGGCGCAACAGAGGAUUGAGCAUCA
B13: 14487958_14488078_7305_CDS_ENSG00000038382_ENST00000344204|human|control|control (ssRNA)
RNA: GGGAGUUCUACAGUCCGACGAUCCCCAAGCGGCAGGGUGCCCAGGCUAGCGCGCGCGUCCUUGGCGGGGGCGUCUGGGCUCGACCCCGAGGCGUUCGCGGCGCCUUUCCUGGGGCUCUCCAGCACCUUCAUCUUGGGGAUCGGCAACAGAGGAUUGAGCAUCA
B14: chr2:9570881:9570882:+_ENSG00000119203_ENST00000238112|hu_mus|hu_hu_hu_mus_False|8_88 (ssRNA)
RNA: GGGAGUUCUACAGUCCGACGAUCACUUGUCUUCUGAAGGAACCAGGGCAGAGCUCCACAGUGAUCCAAAUGGAAAUGACUGAUCAACAGAAGGUCGAUCUCAGCUGGGUCGAUAAGGUCAAUGUAAGGAAGAGCAUCCAUUCCCAACAGAGGAUUGAGCAUCA

The assay deals with T1, UNK ZnF1-3. The assay can be described thus: nsRBNS (natural sequence RNA bind-n-seq); RBNS binding buffer (assumed for nsRBNS): 25 mM Tris pH 7.5, 150 mM KCl, 3 mM MgCl2, 0.01% Triton X-100, 500 ug/ml BSA, 20 U/ml SUPERase-In, 4 C; UNK is unkempt and MSI1 is Musashi-1; names of the RNAs are library labels; protein concentration not given here; high values mean tight binding.
With B1, the binding signal stood at 0.919 enrichment R. The result for B2 reads 0.766 enrichment R. The molecule B3 returned a binding signal of 1.51 enrichment R. As for B4, the binding signal was found to be 0.719 enrichment R. For the molecule B5, the binding signal was 1.24 enrichment R.

The molecule B6 had a binding signal of 0.472 enrichment R. The molecule B7 displayed a binding signal of 0.976 enrichment R. The result for B8 reads 1.23 enrichment R; that for B9, 0.448 enrichment R. Next, B10: 1.25 enrichment R; B11: 1.21 enrichment R; B12: 0.693 enrichment R.

B13 yielded a binding signal of 0.485 enrichment R. Turning to B14, the binding signal worked out at 1.96 enrichment R.
